{"source": "the supplement of paper PMC11880418", "note": "Structures can show the parent of a compound that is named as a salt. The list shows a part of the results. The data scatter; read single values as rough.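 Also: High-content imaging of ALDEFLUOR-stained cells with Hoechst-labelled nuclei in 384-well plates, triplicate wells, scored as Z-score against 0.1% DMSO vehicle, negative meaning fewer ALDHbr cells.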"}
{"test_system": "PANC1", "test": "ALDHbr (CSC) cell proportion score relative to DMSO vehicle (ratio to DMSO); breast (SUM159) / gastric (MKN45) / pancreatic (PANC1) / colon cancer lines; ALDHbr cells have high ALDH activity and are rich in cancer stem cells (CSC); higher = more CSC (ALDHbr) cells remaining", "details": "10 µM; 72 h"}
{"smiles": "CC1COc2c(N3CCN(C)CC3)c(F)cc3c(=O)c(C(=O)O)cn1c23", "note": "(centres undefined) [Ofloxacin]", "ALDHbr": 0.989}
{"smiles": "CNc1ncnc2c1ncn2[C@@H]1O[C@H](CO)[C@@H](O)[C@H]1O", "note": "[N6-methyladenosine]", "ALDHbr": 0.893}
{"smiles": "CCN(CC)CCNC(=O)c1ccc(N)cc1", "note": "[Procainamide hydrochloride]", "ALDHbr": 0.913}
{"smiles": "NS(=O)(=O)c1cc2c(cc1Cl)N=CNS2(=O)=O", "note": "[Chlorothiazide]", "ALDHbr": 0.758}
{"smiles": "CNC(=C[N+](=O)[O-])NCCSCc1ccc(CN(C)C)o1", "note": "[Ranitidine hydrochloride]", "ALDHbr": 0.892}
{"smiles": "OCCN1CCN(CC/C=C2/c3ccccc3Sc3ccc(Cl)cc32)CC1", "note": "[Zuclopenthixol dihydrochloride]", "ALDHbr": 0.879}
{"smiles": "Cc1cc(NC(=O)C2=C(O)c3ccccc3S(=O)(=O)N2C)no1", "note": "[Isoxicam]", "ALDHbr": 0.949}
{"smiles": "CC[C@H](C)C(=O)O[C@H]1C[C@H](O)C=C2C=C[C@H](C)[C@H](CC[C@@H](O)C[C@@H](O)CC(=O)O)[C@H]21", "note": "[Pravastatin]", "ALDHbr": 0.941}
{"smiles": "O=C(CCCN1CCN(c2ccccn2)CC1)c1ccc(F)cc1", "note": "[Azaperone]", "ALDHbr": 0.843}
{"smiles": "CCN(CC)CCCC(C)Nc1ccnc2cc(Cl)ccc12", "note": "(centres undefined) [Chloroquine diphosphate]", "ALDHbr": 0.897}
{"smiles": "CC(=O)OCC(=O)[C@@]12OC3(CCCC3)O[C@@H]1C[C@H]1[C@@H]3CCC4=CC(=O)C=C[C@]4(C)[C@@]3(F)[C@@H](O)C[C@@]12C", "note": "[Amcinonide]", "ALDHbr": 0.627}
{"smiles": "OCC(O)CN1CCN(c2ccccc2)CC1", "note": "(racemic) [Dropropizine (R,S)]", "ALDHbr": 0.905}
{"smiles": "O=C(O)CNC(=O)C(CS)Cc1ccccc1", "note": "(centres undefined) [Thiorphan]", "ALDHbr": 1.11}
{"smiles": "CSc1ccc2c(c1)N(CCC1CCCCN1C)c1ccccc1S2", "note": "(centres undefined) [Thioridazine hydrochloride]", "ALDHbr": 0.846}
{"smiles": "OCCN1CCN(CCCN2c3ccccc3Sc3ccc(C(F)(F)F)cc32)CC1", "note": "[Fluphenazine dihydrochloride]", "ALDHbr": 1.07}
{"smiles": "N[C@@H]1CCCCN(c2c(F)cc3c(=O)c(C(=O)O)cn(C4CC4)c3c2Cl)C1", "note": "[Besifloxacin hydrochloride]", "ALDHbr": 0.88}
{"smiles": "C#C[C@]1(O)CC[C@H]2[C@@H]3CCc4cc(OC)ccc4[C@H]3CC[C@@]21C", "note": "[Ethynylestradiol 3-methyl ether]", "ALDHbr": 0.902}
{"smiles": "CCOC(=O)[C@H](CCc1ccccc1)N[C@H]1CCc2ccccc2N(CC(=O)O)C1=O", "note": "[Benazepril hydrochloride]", "ALDHbr": 0.931}
{"smiles": "CCN(CC)C(=O)C1(c2ccccc2)CC1CN", "note": "(centres undefined) [Milnacipran hydrochloride]", "ALDHbr": 0.909}
{"smiles": "O=C1CN(/N=C/c2ccc(-c3ccc([N+](=O)[O-])cc3)o2)C(=O)N1", "note": "[Dantrolene sodium salt]", "ALDHbr": 0.743}
{"smiles": "CO[C@@]1(NC(=O)CSCC#N)C(=O)N2C(C(=O)O)=C(CSc3nnnn3C)CS[C@@H]21", "note": "[Cefmetazole sodium salt]", "ALDHbr": 0.848}
{"smiles": "O=C(N[C@H](CO)[C@H](O)c1ccc([N+](=O)[O-])cc1)C(Cl)Cl", "note": "[Chloramphenicol]", "ALDHbr": 0.472}
{"smiles": "Clc1ccc(C(c2ccccc2Cl)C(Cl)Cl)cc1", "note": "(centres undefined) [Mitotane]", "ALDHbr": 1.1}
{"smiles": "c1ccc(CN(CC2=NCCN2)c2ccccc2)cc1", "note": "[Antazoline hydrochloride]", "ALDHbr": 0.894}
{"smiles": "O=C(O)c1cccnc1", "note": "[Niacin]", "ALDHbr": 0.764}
{"smiles": "CC[C@H]1OC(=O)[C@H](C)[C@@H](O[C@H]2C[C@@](C)(OC)[C@@H](O)[C@H](C)O2)[C@H](C)[C@@H](O[C@@H]2O[C@H](C)C[C@H](N(C)C)[C@H]2O)[C@](C)(O)C[C@@H](C)CN(C)[C@H](C)[C@@H](O)[C@]1(C)O", "note": "[Azithromycin]", "ALDHbr": 0.635}
{"smiles": "O=C1NCN(c2ccccc2)C12CCN(CCCC(c1ccc(F)cc1)c1ccc(F)cc1)CC2", "note": "[Fluspirilen]", "ALDHbr": 1.1}
{"smiles": "CCOC(=O)NNc1nncc2ccccc12", "note": "[Todralazine hydrochloride]", "ALDHbr": 1.11}
{"smiles": "Cc1c(NC(C)C)c(=O)n(-c2ccccc2)n1C", "note": "[Isopyrin hydrochloride]", "ALDHbr": 0.947}
{"smiles": "CS(=O)(=O)c1ccc([C@@H](O)[C@@H](CO)NC(=O)C(Cl)Cl)cc1", "note": "[Thiamphenicol]", "ALDHbr": 0.599}
{"smiles": "O=C(c1ccc(F)cc1)C1CCN(CCn2c(=O)[nH]c3ccccc3c2=O)CC1", "note": "[Ketanserin tartrate hydrate]", "ALDHbr": 0.653}
{"smiles": "O=C(Nc1cccc2c(=O)cc(-c3nnn[nH]3)oc12)c1ccc(OCCCCc2ccccc2)cc1", "note": "[Pranlukast]", "ALDHbr": 0.681}
{"smiles": "Cc1cnc(NC(=O)C2=C(O)c3ccccc3S(=O)(=O)N2C)s1", "note": "[Meloxicam]", "ALDHbr": 0.941}
{"smiles": "O=C1[C@H](CC[C@H](O)c2ccc(F)cc2)[C@@H](c2ccc(O)cc2)N1c1ccc(F)cc1", "note": "[Ezetimibe]", "ALDHbr": 0.673}
{"smiles": "C[C@H]1C[C@H]2[C@@H]3CCC4=CC(=O)C=C[C@]4(C)[C@@]3(F)[C@@H](O)C[C@]2(C)[C@@]1(O)C(=O)CO", "note": "[Betamethasone]", "ALDHbr": 0.663}
{"smiles": "Cn1cnc2c1c(=O)[nH]c(=O)n2C", "note": "[Theobromine]", "ALDHbr": 0.843}
{"smiles": "C[C@](N)(Cc1ccc(O)c(O)c1)C(=O)O", "note": "[Methyldopa (L,-)]", "ALDHbr": 0.857}
{"smiles": "S=c1[nH]cnc2nc[nH]c12", "note": "[Mercaptopurine]", "ALDHbr": 0.907}
{"smiles": "C[N+](C)(C)CCOC(N)=O", "note": "[Carbachol]", "ALDHbr": 0.803}
